From article PMC4336329 (PLoS ONE, 2015) come the findings set out here.

Molecules are shown by their SMILES. About 14,000 (4.5%) of roughly 310,000 compounds showed an effect of 50% or more. The effect is printed as a negative number. Some of the results follow.
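Note: peak tail current of the secondary pulse compared with the same well before compound.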

The target of this assay is human ether-à-go-go-related gene (hERG) potassium channel (human, UniProt Q12809). Nature of the assay: primary screen, population patch clamp on CHO cells stably expressing hERG.
Sequence of human ether-à-go-go-related gene (hERG) potassium channel (Q12809 whole entry, looked up): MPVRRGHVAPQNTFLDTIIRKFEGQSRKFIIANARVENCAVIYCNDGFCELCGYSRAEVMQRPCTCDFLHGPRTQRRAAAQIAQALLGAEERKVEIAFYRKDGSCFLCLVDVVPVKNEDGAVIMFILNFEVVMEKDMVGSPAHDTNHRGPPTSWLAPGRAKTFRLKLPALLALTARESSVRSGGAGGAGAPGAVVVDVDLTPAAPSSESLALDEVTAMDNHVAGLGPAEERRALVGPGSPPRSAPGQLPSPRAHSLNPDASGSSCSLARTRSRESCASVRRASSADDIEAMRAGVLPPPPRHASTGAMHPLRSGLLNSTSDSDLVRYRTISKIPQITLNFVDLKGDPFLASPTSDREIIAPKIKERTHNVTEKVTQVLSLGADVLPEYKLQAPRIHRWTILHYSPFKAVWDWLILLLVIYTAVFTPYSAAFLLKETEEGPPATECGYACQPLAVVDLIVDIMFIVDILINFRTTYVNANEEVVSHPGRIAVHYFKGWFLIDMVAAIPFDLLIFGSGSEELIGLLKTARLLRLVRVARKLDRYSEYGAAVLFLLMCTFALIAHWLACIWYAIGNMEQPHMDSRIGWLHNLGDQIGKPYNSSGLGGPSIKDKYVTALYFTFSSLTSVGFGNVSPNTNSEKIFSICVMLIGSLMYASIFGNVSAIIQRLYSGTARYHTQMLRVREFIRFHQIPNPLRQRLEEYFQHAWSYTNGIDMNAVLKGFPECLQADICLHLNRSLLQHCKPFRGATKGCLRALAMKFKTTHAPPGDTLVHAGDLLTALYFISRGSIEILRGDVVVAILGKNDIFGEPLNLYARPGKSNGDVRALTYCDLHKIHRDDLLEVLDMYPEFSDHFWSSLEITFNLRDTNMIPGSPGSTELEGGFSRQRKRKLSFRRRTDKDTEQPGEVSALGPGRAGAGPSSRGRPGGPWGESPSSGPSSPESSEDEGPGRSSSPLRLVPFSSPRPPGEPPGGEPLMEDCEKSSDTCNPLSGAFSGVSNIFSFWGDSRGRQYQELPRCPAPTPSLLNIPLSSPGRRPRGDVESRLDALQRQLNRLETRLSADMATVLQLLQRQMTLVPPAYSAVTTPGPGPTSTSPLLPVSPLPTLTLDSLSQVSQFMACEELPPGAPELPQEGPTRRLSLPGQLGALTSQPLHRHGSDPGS
As to `Cc1cc2c(c(=O)o1)C1(C(=O)N(CC(=O)O)c3ccccc31)C(C#N)=C(N)O2` (stereo not drawn), the “hERG current change (%, negative = inhibition) at 10uM” value was 11.4%.
As to `COc1ccccc1C(=O)NCCC(=O)Nc1ccc(S(=O)(=O)N2C(C)CCCC2C)cc1` (stereo not drawn), the “hERG current change (%, negative = inhibition) at 10uM” value is -6.83%.
The figure for `COC(=O)C(Cc1c[nH]c2ccccc12)NC(=O)c1cccc(S(=O)(=O)N2CCCCC2)c1` (stereo not drawn) is -3.04%; for `O=C1[C@@H]2Cc3c([nH]c4ccccc34)C(c3ccccc3)N2C(=O)CN1C1CCN(Cc2ccccc2)CC1` (stereo partly drawn) it is -39.6%; for `Cc1ccc(/C=C/C(=O)O)cc1S(=O)(=O)N(C)CCO` it is -4.65%.
For `CN1CCC(NC(=O)Cc2c(F)cccc2Cl)CC1`, the “hERG current change (%, negative = inhibition) at 10uM” value is given as -1.52%.
Under `Cc1ccc2nc(Nc3ccc(Cl)cc3)c3nncn3c2c1` stands 11.5%; under `CN(CCCC(=O)Nc1nccs1)S(=O)(=O)c1ccc(Cl)cc1`, -10.1%; under `COC(=O)Nc1nc(-c2ccccc2)c(C(=O)c2ccccc2)s1`, 1.29%.
The figure for `CCN(CC)C(=S)NC(=O)c1ccc(OC)c(Br)c1` is 15%.
As to `CC(C)(C)c1ccc(C(=O)NNC(=O)c2cccc(Br)c2)cc1`, the “hERG current change (%, negative = inhibition) at 10uM” value was found to be 9.58%.
Consider `CN(CC(=O)Nc1cccc(F)c1)C(=O)c1cc(S(=O)(=O)N2CCN(c3ccccc3)CC2)ccc1Cl`, for which the “hERG current change (%, negative = inhibition) at 10uM” value is -10.8%.
For the compound `Nc1cc(=O)[nH]c(SCC(=O)Nc2ccccc2-c2ccccc2)n1`, the “hERG current change (%, negative = inhibition) at 10uM” value is recorded as 10.5%.
Regarding `COc1ccc(C2CC(c3ccccc3C)n3nc(N)nc3N2)cc1` (stereo not drawn), the “hERG current change (%, negative = inhibition) at 10uM” value is given as -16.1%.
On to `CCCCCC(=O)Nc1ccc(-c2csc(N)n2)cc1`, for which the “hERG current change (%, negative = inhibition) at 10uM” value was found to be 26.6%.
For `O=C(/C=C/c1ccco1)Nc1cccc2cccnc12`, the “hERG current change (%, negative = inhibition) at 10uM” value is listed as -1.87%.
Regarding `O=C(Nc1ccc(NC(=S)NC(=O)c2ccccc2F)cc1)c1cccs1`, the “hERG current change (%, negative = inhibition) at 10uM” value is given as 5.1%.
Consider `Cc1cc(-c2nc(C)c(C(=O)NNS(=O)(=O)c3cccc(C(F)(F)F)c3)s2)no1`, for which the “hERG current change (%, negative = inhibition) at 10uM” value was 1.2%.
Regarding `C/C(=N\NC(=O)c1cc(-c2ccncc2)nc2ccccc12)c1ccc(OC(F)F)cc1`, the “hERG current change (%, negative = inhibition) at 10uM” value is listed as -56.1%.
Consider `O=C1/C(=C/c2cc([N+](=O)[O-])ccc2Cl)N2CCC1CC2`, for which the “hERG current change (%, negative = inhibition) at 10uM” value is -12.6%.
The figure for `CCCCNC(=O)c1onc(CSc2ccncc2)c1C(=O)NCCCC` is 6.24%; for `COc1cccc(NC(=O)C(=O)c2cn(CC(=O)N3CCCC3)c3ccccc23)c1` it is -3.12%; for `CCC(Sc1nc2cc(OC)c(OC)cc2c(=O)n1Cc1ccc(OC)cc1)C(=O)NCCOC` (stereo not drawn) it is 7%.
Regarding `Cc1cc(C)nc(SCC(=O)c2ccc(O)c(O)c2)n1`, the “hERG current change (%, negative = inhibition) at 10uM” value is recorded as 16.3%.
For `Cc1c(Cl)ccc2sc(NC(=O)CN3C(=O)c4ccccc4C3=O)nc12`, the “hERG current change (%, negative = inhibition) at 10uM” value is reported as 12.5%.
Turning to `Cc1c(NC(=O)C(C)OC(=O)CC2Sc3ccccc3NC2=O)c(=O)n(-c2ccccc2)n1C` (stereo not drawn), the “hERG current change (%, negative = inhibition) at 10uM” value was -2.58%.
Under `CC(=O)c1cccc(N(C(=O)Cn2nnc3ccccc32)C(C(=O)NC2CCCCC2)c2cn(C)nc2C)c1` (stereo not drawn) stands -6.1%.
Under `CC1(C)Cc2c(c(=S)nc(-c3ccccc3)n2CCN2CCOCC2)CO1` stands 8e-05%.
For `CCN(C(=O)CN(C)Cc1cccc(Cl)c1Cl)c1c(N)n(Cc2ccccc2)c(=O)[nH]c1=O`, the “hERG current change (%, negative = inhibition) at 10uM” value turned out to be 7.1%.
As for `CN1CCN(c2ccc(S(=O)(=O)N3CCCCC3)cc2NC(=O)c2cccc([N+](=O)[O-])c2)CC1`, the “hERG current change (%, negative = inhibition) at 10uM” value is listed as -65.8%.
Under `CCCNC(=O)CCc1c(C)nc2nc(-c3cc(OC)cc(OC)c3)nn2c1C` stands -17.7%; under `CC(C)CCNC(=O)NC(=O)CSc1nnc(COc2ccccc2Cl)o1`, -30.2%; under `N#CCc1ccc(NC(=O)c2cc(S(=O)(=O)N3CCOCC3)ccc2Cl)cc1`, 1.8%.
In the case of `CCNc1c(NC(=O)COc2ccc(Cl)cc2)c(=O)oc2ccccc12`, the “hERG current change (%, negative = inhibition) at 10uM” value is listed as -17.1%.
Take `COc1ccc(N2C(=O)C3CCCN3C2c2cccc(C)c2)cc1` (stereo not drawn): the “hERG current change (%, negative = inhibition) at 10uM” value amounted to 4.65%.
Regarding `CSCCC(NC(=O)c1ccccc1Br)C(=O)NCCCn1nc(C)cc1C` (stereo not drawn), the “hERG current change (%, negative = inhibition) at 10uM” value was -16.6%.
As for `O=C1Nc2ccccc2C1(O)C/C(=N/O)c1ccccc1` (stereo not drawn), the “hERG current change (%, negative = inhibition) at 10uM” value came out at 6.77%.
For `CCOC(=O)C1=C(COC(=O)c2c(OC)cccc2OC)NC(=O)NC1C` (stereo not drawn), the “hERG current change (%, negative = inhibition) at 10uM” value is on record as -3.86%.
In the case of `CN(c1ccccc1C(=O)Nc1ccc2c(c1)OCCO2)S(C)(=O)=O`, the “hERG current change (%, negative = inhibition) at 10uM” value is reported as -8.65%.
Regarding `O=C(O)/C(=C\c1ccc(Cl)cc1)c1ccc(S(=O)(=O)N2CCCC2)s1`, the “hERG current change (%, negative = inhibition) at 10uM” value is reported as -33.9%.
In the case of `O=C(COc1ccccc1)NC(=S)Nc1ccc2c3c(cccc13)CC2`, the “hERG current change (%, negative = inhibition) at 10uM” value turned out to be 4.16%.
As for `CC1=C(C(=O)Nc2cccc(C(=O)NC3CCCCC3C)c2)SCCO1` (stereo not drawn), the “hERG current change (%, negative = inhibition) at 10uM” value is -17.8%.
